From the RNAGym collection of RNA variant scans (doi:10.7554/elife.90254)
The source gives no read counts; variants with many changes may rest on few reads.

B1: LINE1-full (parent)
chain: UACGUAGGUGGUUUUCCCCUGAUAGUGCUAAGGGGGCCUGGAAGUUUGGACUGGGCAGAGCUCAACACAGCGUGGCAAAGUGGCUGUGGCUAGACUGCCUCUCUGGAUUCCUCGUCACUCAGCAGGGCAUCUCUGAGAGAAAUGCC

Variants of: B1
Experiment: self-cleavage, relative activity (ratio to wild type); higher = more cleavage; in vitro, sequencing; the parent is a self-cleaving ribozyme
UACGUAGGUGGUUUUCCCCUGAUAGUGCUAAGGGGGCCUGGAAGUUUGGACUGGGCAGAGCUCAACACAGCAUGGCAAAGUGGCUGUGGCUAGACUGCCUCUCUGGAUUCCCCGUCACUCAGCAGGGCAACUCUGAGAGAAAUGCC [G72A U112C U130A] showed a self-cleavage of 1.83.
UACGUAGGUGGUUUUCCCCUGAUAGUGCUAAGGGGGCCUGGAAGUUUGGACUGGGCAGAGCUCAACACAGCUUGGCAAAGUGGCUGUGGCUGGACUGCCUCUCUGGAUUCCUCGUCGCCCAGCAGGGCAUCUCUGAGAGAAAUGCC [G72U A92G A117G U119C] gave a self-cleavage of 0.
Variant UACGUAGGUGGUUUUCCCCUGAUAGUGCUAAGGGGGCCUGGAAGUUUGGACUGGGCAGAGCUCAACACAGCAUGGCAAAGUGGCUGUGGCUAGACUGCCUCUCUGGAUUCCUCGUCACACAGCAGGGCAUCUCUGAGAGGAAUGCC [G72A U119A A140G] has a self-cleavage of 1.46.
UACGUAGGUGGUUUUCCCCUGAUAGUGCUAAGGGGGCCUGGAAGUUUGGACUGGGCAGAGCUCAACACAUCGUGGCAAAGUGGCUGUGGCAAGACUGCCUCUCUGGGUUCCUCGUCACUCAGCAGGGCAUCUCUGAGAGAGAUGCC [G70U U91A A107G A141G] gave a self-cleavage of 0.05.
UACGUAGGUGGUUUUCCCCUGAUAGUGCUAAGGGGGCCUGGAAGUUUGGACUGGGCAGAGCUCAACACAGCUUGGCAAAGUGGCUGUGGCGAGACUGCCUCUCUGGAUUCCUCGUCACUCAGCAAGGCAUCUCUGAGAGAAAUGCC [G72U U91G G125A] gave a self-cleavage of 0.03.
UACGUAGGUGGUUUUCCCCUGAUAGUGCUAAGGGGGCCUGGAAGUUUGGACUGGGCAGAGCUCAACACAGCUUGGCAAAGUGGCAGUGGUUAGACUGCCUCUCUGGAUUCCUCGCCACUCUGCAGGGCAUCUCUGAGAGAAAUGCC [G72U U85A C90U U115C A121U] showed a self-cleavage of 0.06.
In the case of UACGUAGGUGGUUUUCCCCUGAUAGUGCUAAGGGGGCCUGGAAGUUUGGACUGGGCAGAGCUCAACACAGUGUGGCAAAGUGGCUGUGGCUAGACUGCCUCUCCGGGUUCCUCGUCACUCAGCAGGGCAUCUCUGAGAGAAAUGCC [C71U U104C A107G], the self-cleavage is reported as 1.28.
With UACGUAGGUGGUUUUCCCCUGAUAGUGCUAAGGGGGCCUGGAAGUUUGGACUGGGCAGAGCUCAACACAGUGUGGCAAAGUGGCCGUGGCUAGACUGCUUCUCUGGAUUCCUCGUCACUCAGCAGGGCAUCUCUGAGAGAAAUGCC [C71U U85C C99U] the self-cleavage was 0.04.
Variant UACGUAGGUGGUUUUCCCCUGAUAGUGCUAAGGGGGCCUGGAAGUUUGGACUGGGCAGAGCUCAACACAGUGUGGCAAAGUGGCUGAGGCUAGACUGCUUCUCUGGAUUCCUCGUCACUCAGCAGGGCAUCUCUGAGAGAAAUGCC [C71U U87A C99U] has a self-cleavage of 0.01.
For UACGUAGGUGGUUUUCCCCUGAUAGUGCUAAGGGGGCCUGGAAGUUUGGACUGGGCAGAGCUCAACACAGCAUGGCAAAGUGGCGGUGCCUAGACUGCCUCUCUGGAUUCCUCGUCACUCAGCAGGGCAUCUCUGAGAGAAGUGCC [G72A U85G G89C A142G], the self-cleavage was 0.06.
UACGUAGGUGGUUUUCCCCUGAUAGUGCUAAGGGGGCCUGGAAGUUUGGACUGGGCAGAGCUCAACACACCGUGGCAAAGUGGCUGUGGCUAGACUGCCUCUCUGGAUUCCUCGUCGCUCAGCAGGGCAUCUCUGAGAGAAAUUCC [G70C A117G G144U] gave a self-cleavage of 0.37.
Work on UACGUAGGUGGUUUUCCCCUGAUAGUGCUAAGGGGGCCUGGAAGUUUGGACUGGGCAGAGCUCAACACUGCGUGGCAAAGUGGCUGUGGCUAGACUGCCUCUCUGGAUUCCUCGUCACUCAGCAGGGCAACCCUGAGAGAAAUGCC [A69U U130A U132C] yielded a self-cleavage of 0.09.
With UACGUAGGUGGUUUUCCCCUGAUAGUGCUAAGGGGGCCUGGAAGUUUGGACUGGGCAGAGCUCAACACUGCGUGGCAAAGUGGCUGUGGCUAGACUGCCUCUCUGGAUUCCUCGUCACACAGCAGGGCAUCUCUGAGAGAAAAGCC [A69U U119A U143A] the self-cleavage was 0.13.
UACGUAGGUGGUUUUCCCCUGAUAGUGCUAAGGGGGCCUGGAAGUUUGGACUGGGCAGAGCUCAACACAGCAUGGCAAAGUGGCUGUGGCUAGACUGCCUCUCUGGAUUCCUCGUCACUCAGAAGGGCAUCCCUGAGAGAAAUGCC [G72A C123A U132C] gave a self-cleavage of 1.17.
With UACGUAGGUGGUUUUCCCCUGAUAGUGCUAAGGGGGCCUGGAAGUUUGGACUGGGCAGAGCUCAACACAGCAUGGCAAAGUGGCUGUGGCUAGACUGCCUCUUUGGAUUCCUCGUCACUCAGCAGGGCGUCUCUGAGAGAAAUGCC [G72A C103U A129G] the self-cleavage was 1.06.
With UACGUAGGUGGUUUUCCCCUGAUAGUGCUAAGGGGGCCUGGAAGUUUGGACUGGGCAGAGCUCAACACAACGUGGCAAAGUGGCUGUGGCUAGACUGCCUCUCUGGAUUCCUCGUCACUCAGCAGGGCAACUCUGAGUGAAAUGCC [G70A U130A A138U] the self-cleavage was 0.15.
UACGUAGGUGGUUUUCCCCUGAUAGUGCUAAGGGGGCCUGGAAGUUUGGACUGGGCAGAGCUCAACACUGCGUGGCAAAGUGGCUGUGGCUAGACUGCCUCUCUGGAUUCCUCGUCACCCAGCAGGGCAUCUCUGAGAGAAAUGUC [A69U U119C C145U] showed a self-cleavage of 0.04.
In the case of UACGUAGGUGGUUUUCCCCUGAUAGUGCUAAGGGGGCCUGGAAGUUUGGACUGGGCAGAGCUCAACACAGCAUGGCAAGGUGGCUGUGCCUAGACUGCAUCUCUGGAUUCCUCGUCACUCAGCAGGGCAACUCUGAGAGAAAUGCC [G72A A79G G89C C99A U130A], the self-cleavage is reported as 0.02.
UACGUAGGUGGUUUUCCCCUGAUAGUGCUAAGGGGGCCUGGAAGUUUGGACUGGGCAGAGCUCAACACAUCGUGGCAAAGUGGCUGUGGCUAGACUGCCUCUCUGGAUUCCCCGUCACUCAGCAGGGCAUCUCUGAGAGGAACGCC [G70U U112C A140G U143C] gave a self-cleavage of 0.
For UACGUAGGUGGUUUUCCCCUGAUAGUGCUAAGGGGGCCUGGAAGUUUGGACUGGGCAGAGCUCAACACAACGUGGCAAAGUGGCUGAGGCUAGACUGCCUCUCUGGAUUCCUCGUCACUCAGCAGGGCAUCUCUGAGAGAAGUGCC [G70A U87A A142G], the self-cleavage was 0.02.
For UACGUAGGUGGUUUUCCCCUGAUAGUGCUAAGGGGGCCUGGAAGUUUGGACUGGGCAGAGCUCAACACAGCUUGGCAAAGUGGCUGUGGCUAGACUGCCUCUCUGGAUUCCUCGUCACUCAGCAGGGCGUCUCUGAGAGAAGUGCC [G72U A129G A142G], the self-cleavage was 1.44.
Variant UACGUAGGUGGUUUUCCCCUGAUAGUGCUAAGGGGGCCUGGAAGUUUGGACUGGGCAGAGCUCAACACAGUGUGGCAAAGUGGCUGUGGCUAGACUGCCCCCCUGGAUUCCUCGUCACUCAGCAGGGCAUCUCUGAGAGAAAUGCC [C71U U100C U102C] has a self-cleavage of 1.18.
UACGUAGGUGGUUUUCCCCUGAUAGUGCUAAGGGGGCCUGGAAGUUUGGACUGGGCAGAGCUCAACACAGAGUGGCAUAGUGGCUGUGGCUAGACUGCCUCUCUGGAUUCCUCGUCACUCAGCAGGGCAUCUCUGGGAGAAAUGCC [C71A A78U A136G] showed a self-cleavage of 0.38.
Work on UACGUAGGUGGUUUUCCCCUGAUAGUGCUAAGGGGGCCUGGAAGUUUGGACUGGGCAGAGCUCAACACAGCAUGGCAAAGUGGCUGUGGCUAGACUGCCUCUCUGGACUCCUCGUCACUCAGCGGGGCAUCUCUGAGAGAAAUGCC [G72A U108C A124G] yielded a self-cleavage of 1.58.
Variant UACGUAGGUGGUUUUCCCCUGAUAGUGCUAAGGGGGCCUGGAAGUUUGGACUGGGCAGAGCUCAACACAGCAUGGCAAAGUGGCUGUGGCUAGACUGCCUCCCUGGAUUCCUCGUCACUCAGCAGGGUAUCUCUGAGAGAAAUGCC [G72A U102C C128U] has a self-cleavage of 1.03.
Variant UACGUAGGUGGUUUUCCCCUGAUAGUGCUAAGGGGGCCUGGAAGUUUGGACUGGGCAGAGCUCAACACAGCUUGGCAAAGUGGCUGUGGCUAGGCUGCCUCUCUGGAUUCCUCGUCACUCAGCAGGGCACCUCUGAGAGAAGUGCC [G72U A94G U130C A142G] has a self-cleavage of 0.19.
In the case of UACGUAGGUGGUUUUCCCCUGAUAGUGCUAAGGGGGCCUGGAAGUUUGGACUGGGCAGAGCUCAACACUGCGUGGCAAAGUGGCUGUGGCUAGACUGCCUCUCUGGAUUCCUCGUCACCCAGCAGGGCUUCUCUGAGAGAAAUGCC [A69U U119C A129U], the self-cleavage is reported as 0.19.
For UACGUAGGUGGUUUUCCCCUGAUAGUGCUAAGGGGGCCUGGAAGUUUGGACUGGGCAGAGCUCAACACAGCUUGGCAGAGUGGCUGUGGCUAGACUGCCUCUCUGGAUUCCUCGUCACUCAGCAGGGCCUCUCUGAGAGAAAUGCC [G72U A78G A129C], the self-cleavage was 1.
With UACGUAGGUGGUUUUCCCCUGAUAGUGCUAAGGGGGCCUGGAAGUUUGGACUGGGCAGAGCUCAACACAUCGUGGCUAAGUGGCUGUGGCUAGACUGCCUCUCUGGAUUCCUCGUCACUCAGCAGGGCAUAUCUGAGAGAAAUGCC [G70U A77U C131A] the self-cleavage was 0.05.
In the case of UACGUAGGUGGUUUUCCCCUGAUAGUGCUAAGGGGGCCUGGAAGUUUGGACUGGGCAGAGCUCAACACAGUGUGGCAAAGUGGCUGUGGCUAGACGGCCUCUCUGGAUUCCUCGUCACCCAGCAGGGCAUCUCUGAGAGAAAUGCC [C71U U96G U119C], the self-cleavage is reported as 0.06.
For UACGUAGGUGGUUUUCCCCUGAUAGUGCUAAGGGGGCCUGGAAGUUUGGACUGGGCAGAGCUCAACACAGUGUGGCAAUGUGGCUGUGGCUAGACUGCCUCUCUGGAUUCCUCGUCGCUCAGCAGGGCAUCUCUGAGAGAAAUGCC [C71U A79U A117G], the self-cleavage was 1.24.
Variant UACGUAGGUGGUUUUCCCCUGAUAGUGCUAAGGGGGCCUGGAAGUUUGGACUGGGCAGAGCUCAACACAGCAUGGCAAAGUGGCUGUGGCUAGACUGCCUCUCUGGAUUCCUCGUCACUCAGCAGGGCAUCUCUGAGAGAGGUGCC [G72A A141G A142G] has a self-cleavage of 1.61.
Variant UACGUAGGUGGUUUUCCCCUGAUAGUGCUAAGGGGGCCUGGAAGUUUGGACUGGGCAGAGCUCAACACAGUGUGGCAAAGUGGCUGCGGCUAGACUGCCUCCCUGGAUUCCUCGUCACUCAGCAGGGCAUCUCUGAGAGAAAUGCC [C71U U87C U102C] has a self-cleavage of 0.07.
Work on UACGUAGGUGGUUUUCCCCUGAUAGUGCUAAGGGGGCCUGGAAGUUUGGACUGGGCAGAGCUCAACACAGUGUGGCAAAGUGGCAGUGGCUAGACUGCCACUCCGGAUUCCUCGUCACUCAGCAGGGCAUCUCUGAGAGAAAUGCC [C71U U85A U100A U104C] yielded a self-cleavage of 0.02.
Variant UACGUAGGUGGUUUUCCCCUGAUAGUGCUAAGGGGGCCUGGAAGUUUGGACUGGGCAGAGCUCAACACAGUGUGGCAAGGUGGCUGUGGCUAGACUGCCUCUCUGGAUUCCUCGUCACUCAGCAGGGCAUCUCUGAGAGAACUGCC [C71U A79G A142C] has a self-cleavage of 0.87.
UACGUAGGUGGUUUUCCCCUGAUAGUGCUAAGGGGGCCUGGAAGUUUGGACUGGGCAGAGCUCAACACAGCAUGGCAAGGUGGCUGUGGCUAGACUGCCUCUCUGGAUUCCUCGCCACUCAGCAGGGCAUCUCUGAGAGAAAUGCC [G72A A79G U115C] gave a self-cleavage of 1.25.
With UACGUAGGUGGUUUUCCCCUGAUAGUGCUAAGGGGGCCUGGAAGUUUGGACUGGGCAGAGCUCAACACAACGUGGCAAAGUGGCUGCGGCUAGACUGCCUCUCUGGGUUCCUCGUCACUCAGCAGGGCAUCUCUGAGAGAAAUGCC [G70A U87C A107G] the self-cleavage was 0.06.
With UACGUAGGUGGUUUUCCCCUGAUAGUGCUAAGGGGGCCUGGAAGUUUGGACUGGGCAGAGCUCAACACAGUGUGGCAAAGUGGCUGUGGCUAGACUGCCUCUCUGGAUCCCUCGUCACUCAGCAGGGCAUCUCUGAGUGAAGUGCC [C71U U109C A138U A142G] the self-cleavage was 1.3.
UACGUAGGUGGUUUUCCCCUGAUAGUGCUAAGGGGGCCUGGAAGUUUGGACUGGGCAGAGCUCAACACAGUGUGGCAAAGUGGCUGUGGCUAGACUGCCUCUCUGGAUUCCUCGUCUCUCAGCAGGGCAUCCCUGAGAGAAACGCC [C71U A117U U132C U143C] gave a self-cleavage of 0.56.
